What all share (test): protein-binding microarray (PBM)
Settings in all cases: PBM: ~300 nM protein, 6 mM HEPES pH 7.8, 80 mM KCl, 0.5 mM EDTA, 0.5 mM EGTA, 6% glycerol, 35 ng/ul poly-dIdC, 1% milk, 1 h, room temperature; Ap Aiptasia and Nv Nematostella (sea anemones) / Co Capsaspora / Aq Amphimedon (sponge) / Dm Drosophila / Hu human; RHD is the Rel homology domain; high values mean tight binding; most listed sequences are background and not binding sites; double strand, one strand shown

One assay addresses T1, GST-Ap-NF-kB RHD (UniProt A0A913YAJ5).
T1 sequence: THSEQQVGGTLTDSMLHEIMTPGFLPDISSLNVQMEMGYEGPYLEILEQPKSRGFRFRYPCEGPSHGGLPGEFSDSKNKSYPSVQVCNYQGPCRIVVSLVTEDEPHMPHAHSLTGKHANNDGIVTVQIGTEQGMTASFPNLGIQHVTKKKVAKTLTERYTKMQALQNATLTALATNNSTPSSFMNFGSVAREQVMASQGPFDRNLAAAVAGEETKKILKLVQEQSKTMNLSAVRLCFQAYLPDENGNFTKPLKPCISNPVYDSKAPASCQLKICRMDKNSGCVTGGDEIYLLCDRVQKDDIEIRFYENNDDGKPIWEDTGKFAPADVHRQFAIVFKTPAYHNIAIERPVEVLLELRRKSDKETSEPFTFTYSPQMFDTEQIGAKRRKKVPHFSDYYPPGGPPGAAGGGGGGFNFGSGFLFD

The target in assay [1] is T2, GST-Nv-NF-kB (Cys allele) (UniProt E5G601).
T2 sequence: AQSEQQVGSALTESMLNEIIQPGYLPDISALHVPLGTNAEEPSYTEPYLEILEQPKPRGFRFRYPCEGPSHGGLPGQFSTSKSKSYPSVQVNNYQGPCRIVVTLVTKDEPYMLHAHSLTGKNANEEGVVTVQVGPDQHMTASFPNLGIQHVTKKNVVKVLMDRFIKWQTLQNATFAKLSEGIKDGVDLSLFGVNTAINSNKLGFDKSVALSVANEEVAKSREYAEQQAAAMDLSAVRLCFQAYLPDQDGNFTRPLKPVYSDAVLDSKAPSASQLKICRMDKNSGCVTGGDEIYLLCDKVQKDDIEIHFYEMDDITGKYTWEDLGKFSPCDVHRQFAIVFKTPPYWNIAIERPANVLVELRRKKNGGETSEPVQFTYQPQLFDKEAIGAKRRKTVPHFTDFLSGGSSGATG

Another assay deals with T3, GST-Co-NF-kB (UniProt F1ARL5).
T3 sequence: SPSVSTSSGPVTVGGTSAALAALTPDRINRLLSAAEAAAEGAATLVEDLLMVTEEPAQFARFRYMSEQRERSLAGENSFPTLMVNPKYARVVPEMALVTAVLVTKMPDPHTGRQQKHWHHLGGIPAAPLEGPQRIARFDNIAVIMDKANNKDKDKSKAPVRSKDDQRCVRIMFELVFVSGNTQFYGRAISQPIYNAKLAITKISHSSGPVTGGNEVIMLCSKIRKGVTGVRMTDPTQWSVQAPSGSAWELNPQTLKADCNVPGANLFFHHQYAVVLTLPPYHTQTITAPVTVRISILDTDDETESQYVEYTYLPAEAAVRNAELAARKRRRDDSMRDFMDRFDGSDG

The target of the next assay is T4, GST-Dm-Relish (UniProt Q94527).
T4 sequence: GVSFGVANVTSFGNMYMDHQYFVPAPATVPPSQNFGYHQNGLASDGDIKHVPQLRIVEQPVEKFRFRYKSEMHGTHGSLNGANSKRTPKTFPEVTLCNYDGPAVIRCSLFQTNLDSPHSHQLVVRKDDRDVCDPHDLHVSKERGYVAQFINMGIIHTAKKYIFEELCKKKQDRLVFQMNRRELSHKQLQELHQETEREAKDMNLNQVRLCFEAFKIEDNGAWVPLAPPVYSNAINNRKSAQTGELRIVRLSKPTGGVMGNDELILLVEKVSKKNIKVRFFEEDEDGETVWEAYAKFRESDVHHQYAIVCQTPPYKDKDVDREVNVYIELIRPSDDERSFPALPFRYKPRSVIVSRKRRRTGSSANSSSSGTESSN

The target in another assay is T5, GST-Aq-NF-kB (UniProt A9Y5G7).
T5 sequence: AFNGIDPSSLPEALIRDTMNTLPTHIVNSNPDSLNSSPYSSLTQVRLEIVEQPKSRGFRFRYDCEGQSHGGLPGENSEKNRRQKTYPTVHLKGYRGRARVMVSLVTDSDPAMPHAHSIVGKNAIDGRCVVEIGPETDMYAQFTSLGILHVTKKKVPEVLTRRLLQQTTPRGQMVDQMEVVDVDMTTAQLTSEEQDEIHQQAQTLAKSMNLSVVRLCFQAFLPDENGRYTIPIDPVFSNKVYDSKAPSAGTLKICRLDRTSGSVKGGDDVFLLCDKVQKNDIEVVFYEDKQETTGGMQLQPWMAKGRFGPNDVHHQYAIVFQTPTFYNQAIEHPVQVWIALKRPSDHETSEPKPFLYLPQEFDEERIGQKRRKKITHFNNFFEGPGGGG

Only a part is listed here, and it is no random draw. The list includes weakly bound sequences.

Regarding “CCGATTAACATCACACGAGGCTTTGATGTTAATCGGGTCTTGATTCGCTTGACGCTGCTG”, the binding signal with GST-Ap-NF-kB RHD is -0.0324 z-score; in assay [1], -0.251 z-score; with GST-Co-NF-kB, -0.476 z-score; with GST-Dm-Relish it was 0.267 z-score; in the assay with GST-Aq-NF-kB, -0.305 z-score.

On to “CCGATTAACATCATTCATTGACCTGATGTTAATCGGGTCTTGATTCGCTTGACGCTGCTG”, for which the binding signal with GST-Ap-NF-kB RHD was -0.14 z-score; in assay [1], -0.113 z-score; with GST-Co-NF-kB, 0.0275 z-score; with GST-Dm-Relish, -0.347 z-score; with GST-Aq-NF-kB it was -0.428 z-score.

As to “CCGATTAACATCACATGTTGTTTTGATGTTAATCGGGTCTTGATTCGCTTGACGCTGCTG”, the binding signal was -1.03 z-score in the assay with GST-Ap-NF-kB RHD; 0.0565 z-score in assay [1]; 0.351 z-score in the assay with GST-Co-NF-kB; 0.631 z-score in the assay with GST-Dm-Relish; -0.173 z-score with GST-Aq-NF-kB.

For the sequence “CCGATTAACATCATGATTCTTGCTGATGTTAATCGGGTCTTGATTCGCTTGACGCTGCTG”, the binding signal is -0.299 z-score with GST-Ap-NF-kB RHD; -0.179 z-score in assay [1]; -0.102 z-score with GST-Co-NF-kB; -0.442 z-score in the assay with GST-Dm-Relish; -0.499 z-score with GST-Aq-NF-kB.

As to “CCGATTAACATCAGGAAACGCCATGATGTTAATCGGGTCTTGATTCGCTTGACGCTGCTG”, the binding signal with GST-Ap-NF-kB RHD is 0.109 z-score; in assay [1], 0.155 z-score; in the assay with GST-Co-NF-kB, -0.055 z-score; with GST-Dm-Relish, -0.482 z-score; in the assay with GST-Aq-NF-kB, 0.111 z-score.

In the case of “CCGATTAACATCATCGGAAACGCTGATGTTAATCGGGTCTTGATTCGCTTGACGCTGCTG”, the binding signal with GST-Ap-NF-kB RHD was -0.252 z-score; in assay [1] it was -0.325 z-score; in the assay with GST-Co-NF-kB it was -0.978 z-score; in the assay with GST-Dm-Relish, -0.436 z-score; with GST-Aq-NF-kB, -0.428 z-score.

In the case of “CCGATTAACATCAAGGAGATTCCTGATGTTAATCGGGTCTTGATTCGCTTGACGCTGCTG”, the binding signal with GST-Ap-NF-kB RHD is -0.0544 z-score; in assay [1] it was -0.226 z-score; with GST-Co-NF-kB, -0.118 z-score; with GST-Dm-Relish, 0.00713 z-score; with GST-Aq-NF-kB it was 1.73 z-score.

In the case of “CCGATTAACATCAAGGAAGGAGTTGATGTTAATCGGGTCTTGATTCGCTTGACGCTGCTG”, the binding signal in the assay with GST-Ap-NF-kB RHD was 0.157 z-score; in assay [1], 0.581 z-score; with GST-Co-NF-kB, 0.237 z-score; with GST-Dm-Relish it was -0.274 z-score; with GST-Aq-NF-kB, -0.0897 z-score.

For the sequence “CCGATTAACATCAAAGTCCTGTTTGATGTTAATCGGGTCTTGATTCGCTTGACGCTGCTG”, the binding signal with GST-Ap-NF-kB RHD was -0.442 z-score; in assay [1], -0.847 z-score; with GST-Co-NF-kB, -1.26 z-score; in the assay with GST-Dm-Relish it was -0.198 z-score; with GST-Aq-NF-kB, -0.382 z-score.

In the case of “CCGATTAACATCAAATTGCAATATGATGTTAATCGGGTCTTGATTCGCTTGACGCTGCTG”, the binding signal with GST-Ap-NF-kB RHD was -0.86 z-score; in assay [1], 0.0408 z-score; with GST-Co-NF-kB it was -0.763 z-score; in the assay with GST-Dm-Relish, -0.191 z-score; with GST-Aq-NF-kB, -0.324 z-score.

As to “CCGATTAACATCAGGACCTGAAGTGATGTTAATCGGGTCTTGATTCGCTTGACGCTGCTG”, the binding signal is -0.328 z-score in the assay with GST-Ap-NF-kB RHD; 0.0165 z-score in assay [1]; -0.301 z-score with GST-Co-NF-kB; 0.0504 z-score in the assay with GST-Dm-Relish; -0.606 z-score in the assay with GST-Aq-NF-kB.

With “CCGATTAACATCAGCTGTTGCAATGATGTTAATCGGGTCTTGATTCGCTTGACGCTGCTG”, the binding signal with GST-Ap-NF-kB RHD is -0.528 z-score; in assay [1], -0.354 z-score; with GST-Co-NF-kB it was -0.774 z-score; with GST-Dm-Relish it was -0.436 z-score; with GST-Aq-NF-kB, -0.429 z-score.

As to “CCGATTAACATCAGGAATTTCACTGATGTTAATCGGGTCTTGATTCGCTTGACGCTGCTG”, the binding signal with GST-Ap-NF-kB RHD is 0.173 z-score; in assay [1], -0.188 z-score; with GST-Co-NF-kB it was 0.44 z-score; with GST-Dm-Relish, 0.486 z-score; in the assay with GST-Aq-NF-kB, 0.723 z-score.

For the origin of these results see PMC5700166.
